# PubChem BioAssay AID1956 (SRMLSC, 2009)
# The other results are listed elsewhere or left out. These are further read-outs of the screen, such as a control signal, another cell line or another target. No call is given for them.
# Assay: enhancers of HSV replication in host cells, fold increase, host cell viability (AID 1956); note: tested in PC3 cells
# Settings: HSV replication augmentation in cells; fold increase: measured here: primary screen fold increase 10 uM, at 10 µM, stronger effect = higher value; viability: measured here: host cell viability series, at 25 µM, stronger effect = lower value
Compound,fold increase,viability [%]
CC(C)(C)C1c2[nH]c3ccccc3c2CCN1Cc1cccc(OCCO)c1 (stereo unspecified),1.55,96.2
COCCNC(=O)/C(C#N)=C/c1ccc(N2CCOCC2)o1,1.53,92
COc1cc(C2C(C#N)=C(N)Oc3cc(N(C)C)ccc32)cc2c1OCO2 (stereo unspecified),1.5,45.5
COCc1ccc(C(=O)N2CCCC(C(=O)c3cc(F)ccc3F)C2)s1 (stereo unspecified),1.37,94.2
O=C(c1ccco1)N1CCN(CC(=O)N2CCCc3c2c(=O)oc2ccc(O)cc32)CC1,1.5,92.3
O=C(NCc1ccccn1)C1CCCN(S(=O)(=O)c2ccccc2)C1 (stereo unspecified),1.36,101
O=c1[nH]c2ccccc2nc1/C=C/c1ccc(O)cc1,1.64,79.4
S=c1nc(C2CC2)[nH]c2ccccc12,1.24,–
O=C1c2ccccc2S(=O)(=O)c2cc(N3CCC(C(=O)N4CCCCC4)CC3)ccc21,1.33,93
COC(=O)N/N=C/c1cc(N=Nc2ccccc2Cl)ccc1O,1.54,89.7
C=CCN=C(NC#N)SCCc1ccccc1,1.34,95.1
Cc1nn(-c2ccccc2)c(C)c1NC(=O)COc1ccc2ccccc2c1,1.34,89.7
CS(=O)(=O)Oc1ccc2c(c1)O/C(=C\C=C\c1ccccc1)C2=O,5.77,79.5
CC(C)C[C@@H]1NC(=O)[C@H](CO)NC(=O)c2cc([N+](=O)[O-])cc(I)c2OCC[C@@H](C(N)=O)NC1=O,1.35,95.2
Cc1cccc(S(=O)(=O)Nc2cccc3c2C(=O)c2ccccc2-3)c1,1.41,102
CC(Cc1ccccc1)NC(=S)CN1CCCC1=S (stereo unspecified),1.57,101
CCCCc1nc2ccccc2c(NC(=O)CN2CCCC2)c1CCC,1.34,86.9
Cc1ccc2[nH]c3c(c2c1)CN(C(=O)CN1CC(C)OC(C)C1)CC3 (stereo unspecified),1.73,94.8
Cc1ccccc1NC(=O)/C=C/c1ccc([N+](=O)[O-])s1,4.7,53.2
Nc1cccn2c(-c3ccc(Cl)c(Cl)c3)cnc12,1.51,89.2
CC(=O)c1sc2nc(CSc3nnnn3-c3ccccc3)[nH]c(=O)c2c1C,1.38,–
Oc1ccc(N=Nc2cccc(C(F)(F)F)c2)cc1C=Nc1ccc(N2CCOCC2)cc1,1.56,40.6
CCOc1cc(/C=N/NC(=O)Cn2nc([N+](=O)[O-])cc2C)ccc1OCc1ccc(F)cc1,1.25,–
CCN1C(=O)/C(=C/C=C2\C=CN(CC)c3ccccc32)SC1=S,1.68,74.6

Compound,fold increase,viability [%]
CC1C/C(=C/c2cccn2C)C(=O)/C(=C/c2cccn2C)C1 (stereo unspecified),4.6,75.3
CC1(c2ccccc2)CC(C)(C)N2C(=O)/C(=C3\SC(=S)NC3=O)c3cccc1c32 (stereo unspecified),1.34,81.7
N#CC(C#N)=C1C=C2C=C(N3CCCCC3)CCC2CC1 (stereo unspecified),7.32,95.6
c1cncc(-c2nc3ccccc3o2)c1,1.4,103
Cc1cccc(-n2c(CNC(=O)c3ccc(S(=O)(=O)N4CCCC4)cc3)n[nH]c2=S)c1,1.41,103
CCOc1ccc(CN(C)CC(=O)NNC(=O)c2ccc(Cl)cc2)cc1OC,1.33,101
COc1cccc(NC(=O)CSc2nnc(-c3ccoc3C)n2-c2ccccc2)c1,1.14,–
Cc1cccc(N=C2NC(=O)/C(=C/c3cccn3C)S2)c1C,1.33,77.7
CCCOC(=O)CSC1=C(C#N)C(c2ccccc2OCC)C(C#N)C(=O)N1 (stereo unspecified),1.23,–
O=C(NCc1cccs1)c1nc2c(nnn2Cc2ccc(F)cc2)c(=O)[nH]1,1.37,95.9
O=C1/C(=C/c2ccco2)Oc2c1ccc(O)c2CN1CCCCC1,1.37,95.6
O=c1[nH]c(-[n+]2ccccc2)c(/C=N/NC([S-])=Nc2ccccc2)s1,1.92,98.6
CCN(CC)C(=O)CSC(=Nc1ccccc1F)NC#N,1.42,102
Nc1ccccc1Nc1cc(-c2cccc(Cl)c2)nn1-c1ccccc1,1.41,91.5
CCCc1cc(C(=O)NNC(=S)NCC2CCCO2)cs1 (stereo unspecified),1.46,98.3
CC(C)Oc1ccc(C(=O)N/N=C/c2ccc(-c3ccc(S(=O)(=O)Nc4ncccn4)cc3)o2)cc1,1.12,–
CCc1nn(CC(=O)NCCCN2CCCC2=O)c(=O)c2cc3sccc3n12,1.35,99.3
CCCCOc1[nH]c2nc(-c3ccco3)n(Cc3ccco3)c(=N)c2c1C#N,2.21,79.8
COC(=O)c1ccccc1COn1c(=O)c[n+]([O-])c2ccccc21,1.43,92.7
CCN1CCN(C(=O)c2cc3c(=O)n(C)c4ccccc4c3n2C)CC1,1.32,96
C#CCSc1nnnn1-c1cccc(Cl)c1,1.36,81.2
COc1ccc(NC(=O)/C(C#N)=C\c2ccc(N3CCOCC3)o2)cc1,7.87,89.7
Cc1ccc(-c2ccccc2[C@@H]2C[C@H]3CN(C)C(=O)[C@]34CCCN24)o1,1.58,97.4
CCSc1nnc(Cn2c(=O)sc3ccccc32)n1-c1ccc(OC)cc1,1.42,105

Compound,fold increase,viability [%]
CCN1/C(=C/c2ccc3cc(C)ccc3[n+]2CC)Sc2cc(C)c(C)cc21,9.94,–
CCCCn1c(=O)[nH]c2nc3cc(N)ccc3nc2c1=O,4.21,88.5
Cc1ccc(NC(=O)N2CCC(C(=O)NCCC3=CCCCC3)CC2)cc1,1.48,97.9
CN1CCc2c(sc3c2C(=O)NC(c2ccccc2)N3)C1 (stereo unspecified),1.47,102
CCOC(=O)/C=C1\SCC(=O)N1CC(=O)Nc1ccc(OC)c(OC)c1,1.43,–
Cc1cc(/C=C2/SC(=S)N(c3cccc(C(F)(F)F)c3)C2=O)c(C)n1-c1cccnc1,1.2,–
Nc1c(C(=O)Nc2nc3ccccc3s2)sc2nc(-c3cccs3)ccc12,2.3,1.56
CN(C)c1ccc(/C=C2\CCC/C(=C\c3ccccc3)C2=O)cc1,3.02,90.7
Cn1nccc1NS(=O)(=O)c1ccc(C(C)(C)C)cc1,1.32,101
O=C(NCCc1cccs1)C1CC(c2cccc([N+](=O)[O-])c2)=NO1 (stereo unspecified),1.35,96
CC(=O)c1cccc(NC(=O)/C=C/c2ccc([N+](=O)[O-])s2)c1,1.47,51.1
CCN(CC)c1ccc(/C=C(\C#N)c2ccccn2)cc1,1.48,–
O=C(O)C1CN(c2ncccc2[N+](=O)[O-])C1,1.34,93
COc1cc(/C=C(\CC(=O)O)c2nc3ccccc3s2)cc(OC)c1O,1.53,95.1
Cn1c2ccccc2c(=O)c2c(=O)n(Cc3ccco3)c(COc3ccccc3)nc21,2.03,–
CCOC(=O)c1c(-c2ccc(C)cc2)csc1NC(=O)/C(C#N)=C/c1ccc(O)c(OC)c1,8.73,94
CC(=O)NC1=NC(=O)/C(=C/c2cc(C)n(-c3cccc(C(=O)O)c3)c2C)S1,1.55,97.9
CC(=O)c1ccc(-c2ccc(/C=C(/Sc3n[nH]c(C)n3)C(=O)O)o2)cc1,1.59,99.9
CSc1ccccc1NC(=O)CN(C)CC(=O)Nc1cc(C)ccc1C,1.34,98
CCOC(=O)c1[nH]c(C)c(C(=O)Nc2ccc(C)c(C)c2)c1C,1.4,85.5
O=C(CSc1nc2c(c(C(F)(F)F)n1)CCc1ccccc1-2)NCc1ccccc1,1.14,–
CC1(C)Cc2nc(Cl)c(C(=O)O)cc2CO1,1.53,104
CCNC(=O)c1oc2c(c1C)C(=O)CC(C)(C)C2,1.36,85.2
Cc1ccc(C(=O)OCCn2cc(C#N)c(=O)[nH]c2=O)cc1,1.52,104

Compound,fold increase,viability [%]
CCOc1ccc(C2CC(c3ccc(F)cc3)Nc3nc(N)nn32)cc1 (stereo unspecified),1.35,93.8
NC(=S)N/N=C/c1ccccc1,1.36,98.4
COc1ccc2[nH]c3c(=O)n(Cc4ccco4)cnc3c2c1,1.11,–
O=c1oc2c3c4c(cc2c(C(F)(F)F)c1CCN1CCOCC1)CCCN4CCC3,3.06,90.3
CC(=O)c1ccc(-n2c(-c3cc(-c4ccco4)[nH]n3)n[nH]c2=S)cc1,1.32,–
CCN1/C(=C/C=C/c2oc3ccc4ccccc4c3[n+]2CC)Oc2ccc3ccccc3c21,9.44,44.9
N/N=C(\Cc1cscn1)c1ccc(O)cc1O,1.92,–
CCOc1ccc(C(=O)C2CCN(C(=O)c3ccccc3C(=O)O)CC2)cc1,1.54,95.5
CC/C(=N\NC(N)=O)c1ccc(OC(F)F)cc1,1.34,93.5
CN(CC(=O)Nc1ccccc1Sc1ccccc1)C1CCCCC1,1.35,–
Cc1ccccc1N=Cc1cc2c(cc1O)OC(N)=C(C#N)C2c1ccccc1 (stereo unspecified),1.32,–
CC(C)(C)c1cccc(Oc2nn[nH]n2)c1,1.46,97.5
COCCOC(=O)C1=C(C)NC(=O)NC1c1c(Cl)nc2ccccn2c1=O (stereo unspecified),1.96,92.2
CCN(CC)S(=O)(=O)c1ccc(C(=O)NCc2n[nH]c(=S)n2Cc2ccccc2)cc1,1.38,113
COc1ccc(Nc2nc(Nc3ccc(OC)cc3)nc(SC3=NCCS3)n2)cc1,1.52,–
CCN(CC)c1ccc(/C=N/NC(=O)c2cccc(S(=O)(=O)N3CCOCC3)c2)c(O)c1,1.32,–
Nc1c(S(=O)(=O)c2ccccc2)c2nc3ccccc3nc2n1/N=C/c1ccco1,1.53,80.5
COc1ccc(C2NC(=S)NC(C)=C2C(=O)c2ccccc2)cc1OC (stereo unspecified),1.4,97.8
Cc1ccc(C2C3CSCC=C3C(C#N)=C(N)C2(C#N)C#N)cc1 (stereo unspecified),1.41,86.7
CCc1cc(C(=O)OC)c(N2C(=O)C3C4C=CC(C4)C3C2=O)s1 (stereo unspecified),1.33,99.8
Cc1cccc(N=Nc2c(C)c(C#N)c(O)[nH]c2=O)c1,1.86,96.5
CC(=O)c1cc2c(C)c(C(=O)c3ccccc3)oc2cc1O,3.53,95.8
CCc1ccc[n+](-c2[nH]c(=O)sc2/C=N/NC([S-])=Nc2ccccc2)c1,2.46,97.5
